This is an account of results in the supplement of paper PMC4604168 (melanoma cell lines).

Some of the results follow. Single values are uncertain, as repeats are few or missing.
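Also: cell number obtained by counting DAPI-stained nuclei in high-throughput microscope images with image analysis software, screen run in 1,536-well plates.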

The test system of this test is RVH-421. The test can be described thus: cell count relative to DMSO control; melanoma cells; higher = more viable cells. Conditions: library dose: low library concentration; 72 h.
The molecule `Nc1ccn([C@@H]2O[C@H](CO)[C@@H](O)C2(F)F)c(=O)n1` [gemcitabine] + Cc1cc([N+](=O)[O-])ccc1NS(=O)(=O)c1cc(Cl)ccc1Cl [FH535] (first compound 0.0004 µM, partner dose 1 µM) displayed a cell count of 102%.
On to `Nc1ccn([C@@H]2O[C@H](CO)[C@@H](O)C2(F)F)c(=O)n1` [gemcitabine] + Cc1cc(N2CCOCC2)cc2[nH]c(-c3c(NC[C@@H](O)c4cccc(Cl)c4)cc[nH]c3=O)nc12 [BMS536924] (first compound 0.0004 µM, partner dose 0.2 µM), for which the cell count was 112%.
Then `Nc1nc(F)nc2c1ncn2[C@@H]1O[C@H](CO)[C@@H](O)[C@@H]1O` [fludarabine] + CO[C@@H]1[C@H](N(C)C(=O)c2ccccc2)C[C@H]2O[C@]1(C)n1c3ccccc3c3c4c(c5c6ccccc6n2c5c31)C(=O)NC4 [Midostaurin] (first compound 0.2 µM, partner dose 0.08 µM), with 91.8%; and `Nc1ncn([C@H]2C[C@H](O)[C@@H](CO)O2)c(=O)n1` [decitabine] + O=C1NC(=O)/C(=C/c2ccc(-c3ccc(F)cc3O)o2)S1 [AS252424] (first compound 0.1 µM, partner dose 1 µM), with 85.7%; and `Nc1ncn([C@H]2C[C@H](O)[C@@H](CO)O2)c(=O)n1` [decitabine] + CC(C)(C)c1cnc(CSc2cnc(NC(=O)C3CCNCC3)s2)o1 [SNS-032] (first compound 0.1 µM, partner dose 0.01 µM), with 86.9%.
Molecule `Nc1ccn([C@@H]2O[C@H](CO)[C@@H](O)C2(F)F)c(=O)n1` [gemcitabine] + COc1ccc2c(c1)CCC1C2CCC2(C)C(NCCCCCCN3C(=O)C=CC3=O)CCC12 [U73122] (first compound 0.0004 µM, partner dose 0.4 µM) displayed a cell count of 92%.
The value for `Nc1ncn([C@H]2C[C@H](O)[C@@H](CO)O2)c(=O)n1` [decitabine] + COc1cc2c(Oc3ccc4[nH]c(C)cc4c3F)ncnc2cc1OCCCN1CCCC1 [cediranib] (first compound 0.1 µM, partner dose 0.4 µM) was 110%.
Then `Nc1ncn([C@H]2C[C@H](O)[C@@H](CO)O2)c(=O)n1` [decitabine] + CN(C)S(=O)(=O)c1ccc2c(c1)/C(=C/c1cc3c([nH]1)CCCC3)C(=O)N2 [SU6656] (first compound 0.1 µM, partner dose 0.4 µM), with 81.9%; and `CC(=O)O[C@@]12CO[C@@H]1C[C@H](O)[C@@]1(C)C(=O)[C@H](O)C3=C(C)[C@@H](OC(=O)[C@H](O)[C@@H](NC(=O)OC(C)(C)C)c4ccccc4)C[C@@](O)([C@@H](OC(=O)c4ccccc4)[C@H]21)C3(C)C` [Docetaxel] + COc1cc(N2CCC(N3CCN(C)CC3)CC2)ccc1Nc1ncc(Cl)c(Nc2ccccc2S(=O)(=O)C(C)C)n1 [NVP-TAE684] (first compound 0.0001 µM, partner dose 0.08 µM), with 61.5%.
In the case of `Nc1nc(F)nc2c1ncn2[C@@H]1O[C@H](CO)[C@@H](O)[C@@H]1O` [fludarabine] + O=C(Nc1cccc(Cl)c1)Nc1ncc(CCNc2ncnc3ccsc23)s1 [SNS314] (first compound 0.2 µM, partner dose 0.0008 µM), the cell count came out at 103%.
Molecule `CC(=O)O[C@@]12CO[C@@H]1C[C@H](O)[C@@]1(C)C(=O)[C@H](O)C3=C(C)[C@@H](OC(=O)[C@H](O)[C@@H](NC(=O)OC(C)(C)C)c4ccccc4)C[C@@](O)([C@@H](OC(=O)c4ccccc4)[C@H]21)C3(C)C` [Docetaxel] + CC(C)CCN1c2nc(Nc3cc(F)c(O)c(F)c3)ncc2N(C)C(=O)C1C [BID1870] (first compound 0.0001 µM, partner dose 0.2 µM) came in with a cell count of 85.4%.
Then `Nc1ncn([C@H]2C[C@H](O)[C@@H](CO)O2)c(=O)n1` [decitabine] + COc1ccc(-c2ccc3c(N4CCOCC4)nc(N4C[C@@H](C)O[C@@H](C)C4)nc3n2)cc1CO [KU0063794] (first compound 0.1 µM, partner dose 0.02 µM), with 103%; and `Nc1ccn([C@@H]2O[C@H](CO)[C@@H](O)C2(F)F)c(=O)n1` [gemcitabine] + CC1(C)NC(=O)N(c2ccc([N+](=O)[O-])c(C(F)(F)F)c2)C1=O [nilutamide] (first compound 0.0004 µM, partner dose 1 µM), with 110%.
Consider `CC(=O)c1c(C)c2cnc(Nc3ccc(N4CCNCC4)cn3)nc2n(C2CCCC2)c1=O` [palbociclib] + CC(C)(C)c1cnc(CSc2cnc(NC(=O)C3CCNCC3)s2)o1 [SNS-032] (first compound 0.04 µM, partner dose 0.01 µM), for which the cell count was 73.6%.
The value for `Nc1ccn([C@@H]2O[C@H](CO)[C@@H](O)C2(F)F)c(=O)n1` [gemcitabine] + Cc1ccc(NC(=O)c2cccc(N(C)C)c2)cc1NC(=O)c1ccc(O)cc1 [ZM336372] (first compound 0.0004 µM, partner dose 2 µM) was 93.1%.
